To fix the notation:
T1: UNK ZnF1-3 (human, UniProt Q9C0B0 31-174)
T1 sequence: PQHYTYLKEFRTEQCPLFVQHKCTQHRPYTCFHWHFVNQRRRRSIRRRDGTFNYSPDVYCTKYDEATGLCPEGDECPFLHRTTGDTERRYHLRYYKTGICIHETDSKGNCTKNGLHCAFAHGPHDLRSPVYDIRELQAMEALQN

B1: 58754496_58754698_3163_CDS_ENSMUSG00000032340_ENSMUST00000068664|mouse|control|control (ssRNA)
RNA: GGGAGUUCUACAGUCCGACGAUCGCUUGACCUUCUGCCUUUGGUCACCAUCACAGAGAACUCAUAGAGCGUAUUUGGCUUUAAACCAGUAACCAAAUAGCUUAACGUCGUUGCAUUUGCAUUCUUGUACUUCGUGUUUGCUGGCAACAGAGGAUUGAGCAUCA
B2: chr5:118832277:118832278:+_ENSG00000133835_ENST00000256216|hu_hu|FALSE|FALSE (ssRNA)
RNA: GGGAGUUCUACAGUCCGACGAUCUGUUGCUGUAGACGUUGCACGACUAGUAUGAUUUGCUGAAACUCCUCCUUCUGAAUCUAUUUUACUCAGAACUUCAAUUAUACUGCCAGUUGAUUCUUGGAUACUCUGAGGCUUGCUGGCCAACAGAGGAUUGAGCAUCA
B3: chr1:16453270:16453271:-_ENSMUSG00000025920_ENSMUST00000027052|mus_hu|FALSE|FALSE (ssRNA)
RNA: GGGAGUUCUACAGUCCGACGAUCUUAUACUGCUGCCUUCGGAUUCCCAUGUCUGCUCACCAAGACUCAGCUGCACUGAGAACAUCUGAUUUAUUUGAAGCAUGUUAAGACAAUAUUGACCAAACUGCUGUAUCCCUCACGGCUCAACAGAGGAUUGAGCAUCA
B4: chrX:117107323:117107324:-_ENSG00000003096_ENST00000371878|hu_mus|FALSE|FALSE (ssRNA)
RNA: GGGAGUUCUACAGUCCGACGAUCUUUGAGCUGCAACAGUACAAAUGGGAUAUAAACCUCAGCAUAGCCUUAGGCCACAGCUAAUAGAGAUCAGUGACUAAAUUCAGCAGCCCGCUUUCCUCCUGUGAAAGCUCUGGCCACACACAACAGAGGAUUGAGCAUCA
B5: chr11:77336104:77336105:-_ENSG00000074201_ENST00000525064|hu_mus|hu_hu_hu_mus_False|8_48 (ssRNA)
RNA: GGGAGUUCUACAGUCCGACGAUCCUCACACAUUGCUGUGAACAUCGCCUCCAAUGCUGACUUAUCACUGGGCACAAAUCGAAAUUCAGUAAUAGGUUCAACAUCAUCAUUGUCUUCCUCAUCUUCAUCAUCAGCAAGUUCUUUCAACAGAGGAUUGAGCAUCA
B6: chr11:64571133:64571134:-_ENSG00000133895_ENST00000312049|hu_hu|motif|central (ssRNA)
RNA: GGGAGUUCUACAGUCCGACGAUCCUGAAAAAUAAAUCUAUGUACAAAACAGGAAGAGAUCAGGCUCUUGUCACCCACUCCGGACCCUCUGCAGAUUUCCUCCGGGAUGCUCCGAGAUGGGCUGGACCUCUGGGAGGUUCCCAGCAACAGAGGAUUGAGCAUCA
B7: chr2:179515052:179515053:+_ENSMUSG00000000305_ENSMUST00000000314|mus_hu|mus_mus_mus_hu_False|18_88 (ssRNA)
RNA: GGGAGUUCUACAGUCCGACGAUCGCUGUCCCAUGCAGUCACCGUGAAGGCCACCUGCUCGGAGGGGACCUGCAGCUCCCGGGUGGCGAAGACUGUCCCAUCUGCCCCAACUUUGAAGUCCAAGCUGUUGGUCUCAUAUUGUGUCAACAGAGGAUUGAGCAUCA
B8: 64946643_64954203_516_3pUTR_ENSG00000113597_ENST00000231526|human|control|control (ssRNA)
RNA: GGGAGUUCUACAGUCCGACGAUCUUCAUCAGUCUCUGCAUUGUAAAAUUUGGUUUUCACAUCCAAUGGUUUGAGAACCUGAAAUUUGAAGAAUUUUCUGAAAUACAUUUUUUCUCCAGCCUGAGUUGUAUAACUCACAGCACACAACAGAGGAUUGAGCAUCA
B9: chr1:76259871:76259872:+_ENSG00000137955_ENST00000319942|hu_hu|motif|central (ssRNA)
RNA: GGGAGUUCUACAGUCCGACGAUCAUCCACCAUAUCUCCUGGCCUGUCUGCAAAUCCCCCCGUUUCUUCAUCUUGACAUGCGGAAAUGAAAUUACGCAGUUUCUCUCUAUCAAUCCAAUGAAGUCUUCCAAUUAUCUUUAGGGACAACAGAGGAUUGAGCAUCA
B10: 119781160_119781280_302_CDS_ENSMUSG00000034390_ENSMUST00000166750|mouse|control|control (ssRNA)
RNA: GGGAGUUCUACAGUCCGACGAUCGUCGGCCAGCGUUAGGUGGUGCGGCUCCCAGCGCCUCAGGAAUUUGGAGGUGAGGAUCUUGCUGAGAAAGGUCCGAGGGUGCCGGAUGACACAGACCUGAAUGUCGCCCUCCUGCAGCAGCAACAGAGGAUUGAGCAUCA
B11: chr11:22899103:22899104:+_ENSMUSG00000007739_ENSMUST00000173867|mus_hu|motif|central (ssRNA)
RNA: GGGAGUUCUACAGUCCGACGAUCUAAAAUAUAGGCUCUCUCUUCUCGCAGCACUCGGUCCAUCUGGGCAUAGUCAGAAACCACGGUUUGAUUAUCCAUGUCUGUUUUGGGAGCAGAUAAGCAAAACUGAAUAAGCCCAAUCUUCAACAGAGGAUUGAGCAUCA
B12: chr5:71490152:71490153:+_ENSG00000131711_ENST00000296755|hu_hu|FALSE|FALSE (ssRNA)
RNA: GGGAGUUCUACAGUCCGACGAUCUACAUUGAGAAAUACAACUCCUAAGUCAGGGGAGAUGAGGUUUUUCAUCCAGUCACUAUUUGUGGUGGAGCCCUGGGACUGUUCUUCCUCGAGCUCUGCAAUUUUCCGCUGUAACAUGCUCAACAGAGGAUUGAGCAUCA
B13: chrX:147244336:147244337:-_ENSMUSG00000025268_ENSMUST00000112699|mus_hu|FALSE|FALSE (ssRNA)
RNA: GGGAGUUCUACAGUCCGACGAUCGCUGAGAAGAAUGUACAAGUGGUCAUUCUUAUCAAUUUCCUUCAAUUGAAUCCCAAAUACCUUCUCCAAGGAAUAGCCUGCUCGUUCAAUGAUUUCGGGGUACACAUCAGUGUAUUCUUUCAACAGAGGAUUGAGCAUCA
B14: chr17:60770872:60770873:+_ENSG00000011028_ENST00000303375|hu_hu|hu_hu_hu_mus_True|78_108 (ssRNA)
RNA: GGGAGUUCUACAGUCCGACGAUCUCUCUUUUCUUUUAAAAAAAAAGACAAACAAUAAUAAUGGCACUCGAGAAUCAAGAACUACAAUAGAGGGUCCGCUUUGAGUUUUUGUUCACAUCGUCCUGCACUGGGACACGGGGACUGCAACAGAGGAUUGAGCAUCA
B15: chrX:76855959:76855960:-_ENSG00000085224_ENST00000373344|hu_hu|motif|central (ssRNA)
RNA: GGGAGUUCUACAGUCCGACGAUCUGAGGCUAUAAAUUCAUCCAUACUGUCUUCAUCAAAAUAACCCUUAUUUUCUUUGCGGAUGUAGUCUAGCUGCAAACACCAAGGAUGAGUCCAUAUUCUACUUAACAUCUGAAAAUCUUGCAACAGAGGAUUGAGCAUCA
B16: chr2:230653580:230653581:-_ENSG00000153827_ENST00000389045|hu_mus|motif|central (ssRNA)
RNA: GGGAGUUCUACAGUCCGACGAUCAGUGAGCCAUGUUGGGAUGUUUCCUGUCAUGAUUACUAGAGGGUCUUGAAGCUGCCGGUUUGCUUUUGCUGUUAAUUUACUGUUAAUAAAUUCACUAGUUGGAAUAAUCUCCUUGCACAUCAACAGAGGAUUGAGCAUCA
B17: chr5:135513207:135513208:+_ENSG00000113658_ENST00000545279|hu_mus|FALSE|FALSE (ssRNA)
RNA: GGGAGUUCUACAGUCCGACGAUCCCAUGUCAGCUCACAGCAUCUGUACUGGAAAUUCCUCUAAAAUUAAAACAAGUCCACUAAAAAUAUAGUUGAAAGAAUACUUCUGCACUAUGAAACAGAAGAAAUGGGGUUCAGCGGAGACAACAGAGGAUUGAGCAUCA
B18: chr4:151706827:151706828:+_ENSMUSG00000028936_ENSMUST00000139685|mus_mus|FALSE|FALSE (ssRNA)
RNA: GGGAGUUCUACAGUCCGACGAUCCACUGUGUCUCAAGCCCUCCUCGAGACAGGCACCAGAUAUAACCAACCACCAGCUCUAAGACUCGGGCUGGCCGGAGCCCACCACCCAGCCUCUCGUCUACUUGCUCUGUCAGAUGCAGCCAACAGAGGAUUGAGCAUCA
B19: chr12:56499883:56499884:+_ENSMUSG00000021024_ENSMUST00000021412|mus_mus|motif|central (ssRNA)
RNA: GGGAGUUCUACAGUCCGACGAUCGAUAGUAAUGUGACGGUCAAAACCGGCGCUGGAACCCCGGGACAUGGCGUUCCUGCGGUUUUAAACACAGUCUGCACCCCGUAGCACACACACCAGGGACCCAAGCCCCCUCCCGGAAGUCAACAGAGGAUUGAGCAUCA
B20: chr1:186330019:186330020:-_ENSG00000047410_ENST00000367478|hu_hu|FALSE|FALSE (ssRNA)
RNA: GGGAGUUCUACAGUCCGACGAUCCUCAAGCAUUUCUUUUUCCAUUUGAUCUUUGGAUUGCUCCACCUCUAGAAGAUGAUCUUGUAUUGCUUUGUUGGCUUCACCAGCUUCUUUCAAAAGUUUGUGUAGUUCCUCUACUGCCCGCAACAGAGGAUUGAGCAUCA
B21: chr11:44378942:44378943:+_ENSMUSG00000019189_ENSMUST00000019333|mus_mus|FALSE|FALSE (ssRNA)
RNA: GGGAGUUCUACAGUCCGACGAUCUUUAAAUUUAUUAAGACAUUCAGCUAUGUCUGUCAGUCUACAUCCAAAUUUGCUACUAAAAACAAAGGAAAACCACACCCCACAGUAGGAAUACCAAGUCUGAAAUACACUUUUUUUUGACAACAGAGGAUUGAGCAUCA
B22: 75764051_75764171_2063_3pUTR_ENSMUSG00000042410_ENSMUST00000047232|mouse|control|control (ssRNA)
RNA: GGGAGUUCUACAGUCCGACGAUCAUUCAAUUACUGGUAUAACCAUAGCUGAUGACUUUUAAAAGGUAACAUUUUUCAUAAUGAUAUUAAUGGAGUUAUAAAAGGUUUCUGUUUCCAAAGAUGUUACUUGGGUCCACAUACUCCCAACAGAGGAUUGAGCAUCA

This is one part of the list.

For this test, the target named is T1, UNK ZnF1-3. Briefly: nsRBNS (natural sequence RNA bind-n-seq); RBNS binding buffer (assumed for nsRBNS): 25 mM Tris pH 7.5, 150 mM KCl, 3 mM MgCl2, 0.01% Triton X-100, 500 ug/ml BSA, 20 U/ml SUPERase-In, 4 C; UNK is unkempt and MSI1 is Musashi-1; names of the RNAs are library labels; protein concentration not given here; high values mean tight binding.
In turn, B1 displayed a binding signal of 0.653 enrichment R.
Then B2, with 0.618 enrichment R.
Regarding B3, the binding signal came to 1.32 enrichment R.
Then B4, with 0.959 enrichment R; and B5, with 0.906 enrichment R; and B6, with 0.877 enrichment R.
For the molecule B7, the binding signal was determined as 0.883 enrichment R.
B8 gave a binding signal of 0.553 enrichment R.
Then B9, with 0.779 enrichment R; and B10, with 0.665 enrichment R.
The molecule B11 displayed a binding signal of 1.06 enrichment R.
The value for B12 was 0.718 enrichment R; that for B13 was 0.564 enrichment R.
As for B14, the binding signal is 1.52 enrichment R.
Molecule B15 showed a binding signal of 1.05 enrichment R.
The value for B16 was 0.772 enrichment R; that for B17 was 2.28 enrichment R.
The value for B18 was 1.22 enrichment R; that for B19 was 0.579 enrichment R.
The value for B20 was 0.27 enrichment R.
B21: the binding signal stood at 1.14 enrichment R.
Then B22, with 1.25 enrichment R.

These data come from publication PMC12136788.
